This list was built around the results that the source calls inconclusive (neither active nor inactive); the mix of calls is not that of the screen. A potency beside an inconclusive call is a rough fit, not a confirmed value. Activity calls are given as the source filed them. Calls follow the shape of the dose curve; as a rule, active = well fitted inhibition curve with a large enough effect; inconclusive = small, poorly fitted or top-dose-only effect; inactive = flat fitted curve, though single readings scatter.
Assay: P-glycoprotein substrates identified in KB-8-5-11 adenocarcinoma cell line, qHTS therapeutic library screen (AID 1346987); also: nearly all actives have a fitted effect of over 65% in size
Conditions: KB-8-5-11 (P-gp overexpressing) viability, CellTiter-Glo, 72 h; series mostly up to 44.5 µM
Outline: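 Luminescence from CellTiter-Glo, read 5 min after addition, quantified survival of KB-8-5-11 (P-gp-overexpressing) cells exposed to compounds for 72 h. AC50 was derived from concentration-response curves.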
In the case of `C=C(C)[C@@]12O[C@@H]1[C@@]1(C)C(=CC2=O)CC[C@@H](OC(C)=O)[C@@H]1C`, the Potency is reported as active: 5.17 µM. For `N#Cc1cn([C@@H]2O[C@H](CO)[C@H](O)[C@@H]2O)c2ncnc(N)c12`, the Potency was active: 0.0206 µM. For `C[C@]12CC[C@H](O)C[C@H]1CC[C@@H]1[C@@H]2[C@H](O)C[C@]2(C)[C@@H](c3ccc(=O)oc3)CC[C@]12O`, the Potency was active: 0.0517 µM. With `CO[C@@H]1[C@@H](O)[C@@H](O[C@H]2CC[C@]3(C=O)C4CC[C@]5(C)[C@@H](C6=CC(=O)OC6)CC[C@]5(O)[C@@H]4CC[C@H]3C2)O[C@@H](C)[C@H]1O[C@@H]1O[C@H](CO[C@@H]2O[C@H](CO)[C@@H](O)[C@H](O)[C@H]2O)[C@@H](O)[C@H](O)[C@H]1O` (some centres undefined) the Potency was active: 3.48 µM. With `CN1C(=O)[C@]23CC4C(C)(C)[C@@]5(C[C@@]41CN2CC[C@@]3(C)O)C(=O)Nc1c5ccc2c1OC=CC(C)(C)O2` (some centres undefined) the Potency was “inactive”. In the case of `CC(C)c1c(CN(C)C(C)Cc2ccccc2)n(C)n(-c2ccccc2)c1=O` (centres undefined), the Potency is reported as inconclusive: 6.99 µM [inhibitor, single point]. For `CC(CC(C#N)(c1ccccc1)c1ccccc1)N(C)C` (centres undefined), the Potency was inconclusive: 35.5 µM [inhibitor, single point]. For `CC(C)C(=O)O[C@H]1[C@@H]2[C@H](C)C(=O)O[C@@H]2C[C@@H](C)[C@@H]2C=CC(=O)[C@]21C`, the Potency was active: 16.1 µM. For `C=C1[C@@H](C)[C@H]2[C@H](Cc3ccccc3)NC(=O)[C@]23OC(=O)/C=C/C(=O)CCC[C@@H](C)C/C=C/[C@H]3[C@@H]1O`, the Potency was active: 5.8 µM. In the case of `CN1CN(c2ccccc2)C2(CCN(CCCC(=O)c3ccc(F)cc3)CC2)C1=O`, the Potency is reported as inconclusive: 7.31 µM [inhibitor, partial curve]. For `O=C(Nc1ccccc1-c1ccc(Cl)cc1)c1cccnc1Cl`, the Potency was inconclusive: 28.2 µM [inhibitor, single point]. For `CN1C(=O)c2ccccc2NC(=O)C1Cc1ccccc1` (centres undefined), the Potency was “inactive”. For `O=C(NCCN1CCC2(CC1)C(=O)NCN2c1cccc(F)c1)c1ccc2ccccc2c1`, the Potency was inconclusive: 20.6 µM [inhibitor, single point]. In the case of `C[C@H]1CCC/C=C/C2C[C@H](O)C[C@H]2[C@H](O)/C=C/C(=O)O1` (some centres undefined), the Potency is reported as active: 0.184 µM. With `OCCCBr` the Potency was “inactive”. For `O=C1CCO1`, the Potency was “inactive”. For `CCN(CC)Cc1nccn1-c1ccc([N+](=O)[O-])cc1C(=O)c1ccccc1Cl`, the Potency was inconclusive: 16.4 µM [inhibitor, partial curve]. With `C=C1C[C@@H]2[C@H](CC[C@]3(C)C(=O)CC[C@@H]23)[C@@]2(C)C=CC(=O)C=C12` the Potency was inconclusive: 23.1 µM [inhibitor, single point]. With `C#C[C@]1(O)C=C[C@H]2[C@@H]3CCC4=CC(=O)CC[C@@H]4[C@H]3CC[C@@]21CC` the Potency was active: 6.51 µM. In the case of `O=C1Nc2ccc3ncsc3c2/C1=C/c1cnc[nH]1`, the Potency is reported as active: 1.64 µM. For `CCC1NC(=O)C2C(Cl)C(Cl)CN2C(=O)C(C(C)O)NC(=O)CC(c2ccccc2)NC(=O)C(CO)NC1=O` (centres undefined), the Potency was “inactive”. For `N#Cc1ccccc1-c1cc(-c2ccccn2)cn(-c2ccccc2)c1=O`, the Potency was inconclusive: 11.6 µM [inhibitor, partial curve]. With `NC(=O)CS(=O)C(c1ccccc1)c1ccccc1` (centres undefined) the Potency was “inactive”. In the case of `COc1cc2c(c(OC)c1OC)-c1ccc(SC)c(=O)cc1[C@@H](NC(C)=O)CC2`, the Potency is reported as active: 0.231 µM. With `CC[C@H](O)[C@@H](C)[C@H]1O[C@@H]1C[C@H](C)/C=C/C=C(\C)[C@H]1OC(=O)C[C@H](O)CC[C@@](C)(O)[C@@H](OC(C)=O)/C=C/[C@@H]1C` the Potency was active: 0.0092 µM. For `CO[C@H]1C[C@H](O[C@H]2CC[C@]3(CO)[C@H]4CC[C@]5(C)[C@@H](C6=CC(=O)OC6)CC[C@]5(O)[C@@H]4CC[C@]3(O)C2)O[C@H](C)[C@H]1O`, the Potency was active: 0.0224 µM. In the case of `C[C@@H](CN1CCC(n2c(=O)[nH]c3cc(Br)ccc32)CC1)NC(=O)[C@@H]1C[C@H]1c1ccccc1`, the Potency is reported as active: 20.6 µM. In the case of `CCCN(CCC)c1c([N+](=O)[O-])cc(S(N)(=O)=O)cc1[N+](=O)[O-]`, the Potency is reported as inconclusive: 50.1 µM [inhibitor, partial curve]. With `O=[N+]([O-])c1ccc([As](=O)(O)O)cc1` the Potency was “inactive”. With `Nc1ccc([N+](=O)[O-])cc1` the Potency was inconclusive: 35.5 µM [inhibitor, single point]. In the case of `COC(C)(C)CCCC(C)C/C=C/C(C)=C/C(=O)OC(C)C` (centres undefined), the Potency is reported as inconclusive: 14.6 µM [inhibitor, partial curve, poor fit]. With `CCN(CC)CCOC(=O)C(C)(c1ccccc1)c1ccccc1` the Potency was inconclusive: 16.4 µM [inhibitor, single point]. For `COC(=O)[C@@]1(C)C(=O)C=C[C@]2(C)c3c(O)cc(C(C)C)cc3[C@H](O)[C@@H](OC(C)=O)C12` (some centres undefined), the Potency was “inactive”. For `O=C1NCN(c2ccccc2)C12CCN(CC1COc3ccccc3O1)CC2` (centres undefined), the Potency was inconclusive: 20.6 µM [inhibitor, single point]. For `CC(C)[C@H](NC(=O)c1nn(Cc2ccc(F)cc2)c2ccccc12)C(N)=O`, the Potency was “inactive”. With `C/C=C(/C)C(=O)O[C@H]1[C@@H]2[C@H](C)C(=O)O[C@@H]2C[C@@H](C)[C@@H]2C=CC(=O)[C@]21C` the Potency was inconclusive: 12.8 µM [inhibitor, single point]. In the case of `Cc1ccccc1CN1CCC(N2CCC(n3c(=O)[nH]c4ccccc43)CC2)CC1`, the Potency is reported as inconclusive: 6.51 µM [inhibitor, partial curve, poor fit]. For `CN(C)c1cc2c(cc1Sc1nc3c(N)nccc3n1CCNCC(C)(C)C)OCO2`, the Potency was active: 0.517 µM. For `COC1C(O)C(C)OC(OC2C(CO)O[C@@H](O[C@@H]3CC4CCC5C(CC[C@]6(C)[C@@H](C7=CC(=O)OC7)CC[C@]56O)[C@@]4(C)[C@H](OC(C)=O)C3)C(O)C2O)C1O` (some centres undefined), the Potency was active: 2.73 µM.
Potency is read from the fitted curve at half-maximal effect; tags tell the direction and shape of the fitted curve.
